# From the supplement of paper PMC8728848
# Some of the results follow.
# How the values were obtained:
# Assay in all cases: glycan array binding signal (z-score within array); higher = stronger binding
# Details in all cases: glycan notation: IUPAC condensed, linker removed; mutation: R144S
# Fuc(a1-2)Gal = target: Fuc(a1-2)Gal
# Procedure, shortened: (§1)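 The binding signal is a Z-score computed within each array and averaged over linkers. Arrays of the same protein sequence at different concentrations or buffers were also averaged together. Data originate from 3228 arrays in the Consortium for Functional Glycomics database, kept only where the protein sequence was available.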
# Fuc(a1-2)Gal(b1-3)GalNAc = target: Fuc(a1-2)Gal(b1-3)GalNAc
# Procedure, shortened: as §1
# [1] = target: Fuc(a1-2)Gal(b1-3)GalNAc(a1-3)[Fuc(a1-2)]Gal(b1-4)Glc
# Procedure, shortened: as §1
# [2] = target: Fuc(a1-2)Gal(b1-3)GalNAc(a1-3)[Fuc(a1-2)]Gal(b1-4)GlcNAc
# Procedure, shortened: as §1
# [3] = target: Fuc(a1-2)Gal(b1-3)GalNAc(b1-3)Gal
# Procedure, shortened: as §1
# [4] = target: Fuc(a1-2)Gal(b1-3)GalNAc(b1-3)Gal(a1-4)Gal(b1-4)Glc
# Procedure, shortened: as §1
# [5] = target: Fuc(a1-2)Gal(b1-3)GalNAc(b1-4)[Neu5Ac(a2-3)]Gal(b1-4)Glc
# Procedure, shortened: as §1
# Fuc(a1-2)Gal(b1-3)GlcNAc = target: Fuc(a1-2)Gal(b1-3)GlcNAc
# Procedure, shortened: as §1
# [6] = target: Fuc(a1-2)Gal(b1-3)GlcNAc(b1-2)Man(a1-3)[Fuc(a1-2)Gal(b1-3)GlcNAc(b1-2)Man(a1-6)]Man(b1-4)GlcNAc(b1-4)GlcNAc
# Procedure, shortened: as §1
# [7] = target: Fuc(a1-2)Gal(b1-3)GlcNAc(b1-3)Gal(b1-4)Glc
# Procedure, shortened: as §1
# [8] = target: Fuc(a1-2)Gal(b1-3)GlcNAc(b1-3)[Fuc(a1-3)[Gal(b1-4)]GlcNAc(b1-6)]Gal(b1-4)Glc
# Procedure, shortened: as §1
# [9] = target: Fuc(a1-2)Gal(b1-3)[Fuc(a1-4)]GlcNAc
# Procedure, shortened: as §1
# [10] = target: Fuc(a1-2)Gal(b1-3)[Fuc(a1-4)]GlcNAc(b1-2)Man(a1-3)[Fuc(a1-2)Gal(b1-3)[Fuc(a1-4)]GlcNAc(b1-2)Man(a1-6)]Man(b1-4)GlcNAc(b1-4)GlcNAc
# Procedure, shortened: as §1
# [11] = target: Fuc(a1-2)Gal(b1-3)[Fuc(a1-4)]GlcNAc(b1-3)[Fuc(a1-3)[Gal(b1-4)]GlcNAc(b1-6)]Gal(b1-4)Glc
# Procedure, shortened: as §1
# [12] = target: Fuc(a1-2)Gal(b1-3)[Fuc(a1-4)]GlcNAc(b1-3)[Gal(b1-4)GlcNAc(b1-6)]Gal(b1-4)Glc
# Procedure, shortened: as §1
# Fuc(a1-2)Gal(b1-4)Glc = target: Fuc(a1-2)Gal(b1-4)Glc
# Procedure, shortened: as §1
# Fuc(a1-2)Gal(b1-4)Glc6S = target: Fuc(a1-2)Gal(b1-4)Glc6S
# Procedure, shortened: as §1
# Fuc(a1-2)Gal(b1-4)GlcNAc = target: Fuc(a1-2)Gal(b1-4)GlcNAc
# Procedure, shortened: as §1
# [13] = target: Fuc(a1-2)Gal(b1-4)GlcNAc(b1-2)Man(a1-3)[Fuc(a1-2)Gal(b1-4)GlcNAc(b1-2)Man(a1-6)]Man(b1-4)GlcNAc(b1-4)GlcNAc
# Procedure, shortened: as §1
# [14] = target: Fuc(a1-2)Gal(b1-4)GlcNAc(b1-3)Gal(b1-4)GlcNAc
# Procedure, shortened: as §1
# [15] = target: Fuc(a1-2)Gal(b1-4)GlcNAc(b1-3)Gal(b1-4)GlcNAc(b1-3)Gal(b1-4)GlcNAc
# Procedure, shortened: as §1
# [16] = target: Fuc(a1-2)Gal(b1-4)GlcNAc(b1-3)GalNAc
# Procedure, shortened: as §1
# [17] = target: Fuc(a1-2)Gal(b1-4)GlcNAc6S
# Procedure, shortened: as §1
# [18] = target: Fuc(a1-2)Gal(b1-4)[Fuc(a1-3)]GlcNAc
# Procedure, shortened: as §1
# [19] = target: Fuc(a1-2)Gal(b1-4)[Fuc(a1-3)]GlcNAc(b1-2)Man(a1-3)[Fuc(a1-2)Gal(b1-4)[Fuc(a1-3)]GlcNAc(b1-2)Man(a1-6)]Man(b1-4)GlcNAc(b1-4)GlcNAc
# Procedure, shortened: as §1
# [20] = target: Fuc(a1-2)Gal(b1-4)[Fuc(a1-3)]GlcNAc(b1-3)Gal(b1-4)[Fuc(a1-3)]GlcNAc
# Procedure, shortened: as §1
# [21] = target: Fuc(a1-2)Gal(b1-4)[Fuc(a1-3)]GlcNAc(b1-3)Gal(b1-4)[Fuc(a1-3)]GlcNAc(b1-3)Gal(b1-4)[Fuc(a1-3)]GlcNAc
# Procedure, shortened: as §1
# Fuc(a1-2)Gal6S(b1-4)Glc = target: Fuc(a1-2)Gal6S(b1-4)Glc
# Procedure, shortened: as §1
# [22] = target: Fuc(a1-2)Gal6S(b1-4)Glc6S
# Procedure, shortened: as §1
# [23] = target: Fuc(a1-2)Gal6S(b1-4)GlcNAc
# Procedure, shortened: as §1
# Fuc(a1-2)[Gal(a1-3)]Gal = target: Fuc(a1-2)[Gal(a1-3)]Gal
# Procedure, shortened: as §1
# [24] = target: Fuc(a1-2)[Gal(a1-3)]Gal(b1-3)GlcNAc
# Procedure, shortened: as §1
# [25] = target: Fuc(a1-2)[Gal(a1-3)]Gal(b1-3)GlcNAc(b1-2)Man(a1-3)[Fuc(a1-2)[Gal(a1-3)]Gal(b1-3)GlcNAc(b1-2)Man(a1-6)]Man(b1-4)GlcNAc(b1-4)GlcNAc
# Procedure, shortened: as §1
# [26] = target: Fuc(a1-2)[Gal(a1-3)]Gal(b1-4)Glc
# Procedure, shortened: as §1
# [27] = target: Fuc(a1-2)[Gal(a1-3)]Gal(b1-4)GlcNAc
# Procedure, shortened: as §1
# [28] = target: Fuc(a1-2)[Gal(a1-3)]Gal(b1-4)GlcNAc(b1-2)Man(a1-3)[Fuc(a1-2)[Gal(a1-3)]Gal(b1-4)GlcNAc(b1-2)Man(a1-6)]Man(b1-4)GlcNAc(b1-4)GlcNAc
# Procedure, shortened: as §1
# [29] = target: Fuc(a1-2)[Gal(a1-3)]Gal(b1-4)[Fuc(a1-3)]GlcNAc
# Procedure, shortened: as §1
# [30] = target: Fuc(a1-2)[Gal(a1-4)]Gal(b1-4)GlcNAc
# Procedure, shortened: as §1
# [31] = target: Fuc(a1-2)[GalNAc(a1-3)]Gal
# Procedure, shortened: as §1
# [32] = target: Fuc(a1-2)[GalNAc(a1-3)]Gal(b1-3)GalNAc(a1-3)[Fuc(a1-2)]Gal(b1-4)GlcNAc
# Procedure, shortened: as §1
# [33] = target: Fuc(a1-2)[GalNAc(a1-3)]Gal(b1-3)GlcNAc
# Procedure, shortened: as §1
# [34] = target: Fuc(a1-2)[GalNAc(a1-3)]Gal(b1-3)GlcNAc(b1-2)Man(a1-3)[Fuc(a1-2)[GalNAc(a1-3)]Gal(b1-3)GlcNAc(b1-2)Man(a1-6)]Man(b1-4)GlcNAc(b1-4)GlcNAc
# Procedure, shortened: as §1
# [35] = target: Fuc(a1-2)[GalNAc(a1-3)]Gal(b1-4)Glc
# Procedure, shortened: as §1
# [36] = target: Fuc(a1-2)[GalNAc(a1-3)]Gal(b1-4)GlcNAc
# Procedure, shortened: as §1
# [37] = target: Fuc(a1-2)[GalNAc(a1-3)]Gal(b1-4)GlcNAc(b1-2)Man(a1-3)[Fuc(a1-2)[GalNAc(a1-3)]Gal(b1-4)GlcNAc(b1-2)Man(a1-6)]Man(b1-4)GlcNAc(b1-4)GlcNAc
# Procedure, shortened: as §1
binder,measurement,setting,value
"Gal 3 (Homo sapiens), P17931 (protein) MADNFSLHDALSGSGNPNPQGWPGAWGNQPAGAGGYPGASYPGAYPGQAPPGAYPGQAPPGAYHGAPGAYPGAPAPGVYPGPPSGPGAYPSSGQPSAPGAYPATGPYGAPAGPLIVPYNLPLPGGVVPRMLITILGTVKPNANSILDFQRGNDVAFHFNPRFNENNRRVIVCNTKLDNNWGREERQSVFPFESGKPFKIQVLVEPDHFKVAVNDAHLLQYNHRVKKLNEISKLGISGDIDLTSASYTMI",glycan array binding signal (z-score),Fuc(a1-2)Gal,-0.355
same,glycan array binding signal (z-score),Fuc(a1-2)Gal(b1-3)GalNAc,-0.358
same,glycan array binding signal (z-score),[1],1.18
same,glycan array binding signal (z-score),[2],2.29
same,glycan array binding signal (z-score),[3],-0.35
same,glycan array binding signal (z-score),[4],-0.362
same,glycan array binding signal (z-score),[5],-0.359
same,glycan array binding signal (z-score),Fuc(a1-2)Gal(b1-3)GlcNAc,0.739
same,glycan array binding signal (z-score),[6],0.907
same,glycan array binding signal (z-score),[7],1.1
same,glycan array binding signal (z-score),[8],0.343
same,glycan array binding signal (z-score),[9],-0.352
same,glycan array binding signal (z-score),[10],-0.354
same,glycan array binding signal (z-score),[11],-0.35
same,glycan array binding signal (z-score),[12],1.07
same,glycan array binding signal (z-score),Fuc(a1-2)Gal(b1-4)Glc,-0.315
same,glycan array binding signal (z-score),Fuc(a1-2)Gal(b1-4)Glc6S,-0.313
same,glycan array binding signal (z-score),Fuc(a1-2)Gal(b1-4)GlcNAc,0.468
same,glycan array binding signal (z-score),[13],1.48
same,glycan array binding signal (z-score),[14],1.39
same,glycan array binding signal (z-score),[15],1.05
same,glycan array binding signal (z-score),[16],-0.241
same,glycan array binding signal (z-score),[17],0.788
same,glycan array binding signal (z-score),[18],-0.357
same,glycan array binding signal (z-score),[19],-0.342
same,glycan array binding signal (z-score),[20],-0.357
same,glycan array binding signal (z-score),[21],-0.361
same,glycan array binding signal (z-score),Fuc(a1-2)Gal6S(b1-4)Glc,-0.354
same,glycan array binding signal (z-score),[22],-0.357
same,glycan array binding signal (z-score),[23],-0.361
same,glycan array binding signal (z-score),Fuc(a1-2)[Gal(a1-3)]Gal,-0.355
same,glycan array binding signal (z-score),[24],1.58
same,glycan array binding signal (z-score),[25],4.81
same,glycan array binding signal (z-score),[26],1.45
same,glycan array binding signal (z-score),[27],1.9
same,glycan array binding signal (z-score),[28],5.46
same,glycan array binding signal (z-score),[29],-0.358
same,glycan array binding signal (z-score),[30],-0.362
same,glycan array binding signal (z-score),[31],-0.357
same,glycan array binding signal (z-score),[32],2.8
same,glycan array binding signal (z-score),[33],3.22
same,glycan array binding signal (z-score),[34],6.11
same,glycan array binding signal (z-score),[35],2.4
same,glycan array binding signal (z-score),[36],3.36
same,glycan array binding signal (z-score),[37],5.95
